According to the supplement of paper PMC7125110:
± gives the standard error. Variants at the background level are over-represented here.

B1: glmS ribozyme (parent)
chain: AUAAAAGCGCCAGAACUACAGAAAUGUAGUUGACGAGGAGGAGGUUUAUCGAAUUUUCGGCGGAUGCCUCCAAA

Experiments:
Settings in all cases: with glucosamine-6-phosphate
glucosamine-6-phosphate [1] = variants of: B1; experiment: self-cleavage kobs at 40 uM GlcN6P; higher = faster cleavage; RNA array
How it was run: (§1)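 Glucosamine-6-phosphate, from 40 μM to 10 mM in HEPES/KCl/Mg(OAc)2 buffer, was flowed over sequenced MiSeq chips carrying barcoded ribozyme variants transcribed in situ by E. coli RNA polymerase. A hybridised Cy3 probe tracked the variants at 37 °C as tiles were imaged over ~14 h. kobs, kcat and KM were obtained by fitting normalised per-tile medians to exponential decays and then applying weighted Michaelis–Menten fits across concentrations.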

glucosamine-6-phosphate [2] = variants of: B1; experiment: self-cleavage kobs at 640 uM GlcN6P; higher = faster cleavage; RNA array
How it was run: as §1

glucosamine-6-phosphate [3] = variants of: B1; experiment: self-cleavage kobs at 2500 uM GlcN6P; higher = faster cleavage; RNA array
How it was run: as §1

glucosamine-6-phosphate [4] = variants of: B1; experiment: self-cleavage kobs at 10000 uM GlcN6P; higher = faster cleavage; RNA array
How it was run: as §1

glucosamine-6-phosphate [5] = variants of: B1; experiment: self-cleavage kobs at 160 uM GlcN6P; higher = faster cleavage; RNA array
How it was run: as §1

Variant	self-cleavage kobs at 40 uM GlcN6P (glucosamine-6-phosphate [1]) [s⁻¹]	self-cleavage kobs at 640 uM GlcN6P (glucosamine-6-phosphate [2]) [s⁻¹]	self-cleavage kobs at 2500 uM GlcN6P (glucosamine-6-phosphate [3]) [s⁻¹]	self-cleavage kobs at 10000 uM GlcN6P (glucosamine-6-phosphate [4]) [s⁻¹]	self-cleavage kobs at 160 uM GlcN6P (glucosamine-6-phosphate [5]) [s⁻¹]
AUAAAAGCGCCAGAACUACAGAAAUGUAGUUAACGAGGAGGAGGUUUAGCGAAUUUUCGGCGGAUGCCUCCAAA [G32A U49G]	< 1e-05	2.83e-05 ± 1.2e-05	4.58e-05 ± 1.1e-05	5.56e-05 ± 8.3e-06	
AUAAAAGCGCCAGAACUACAGAAAUGUAGUUAACGAGGAGGAGGUUUAUCGAAAUUUCGGCGGAUGCCUCCAAA [G32A U54A]	6.3e-05 ± 1.3e-05	0.00067 ± 0.00011	0.00157 ± 0.00026	0.00286 ± 0.00045	0.000125 ± 2.9e-05
AUAAAAGCGCCAGAACUACAGAAAUGUAGUUAACGAGGAGGAGGUUUAUCGAAGUUUCAGCGGAUGCCUCCAAA [G32A U54G G59A]	< 1e-05				
AUAAAAGCGCCAGAACUACAGAAAUGUAGUUAACGAGGAGGAGGUUUAUCGAAUUUCCGGCGGAUGCCUCCAAA [G32A U57C]	< 1e-05		5.22e-05 ± 1.9e-05		
AUAAAAGCGCCAGAACUACAGAAAUGUAGUUCCCGAGGAGGAGGUUUAUCGAAUUUUCGGCGGAUGCCUCCAAA [G32C A33C]	< 1e-05	< 1e-05		< 1e-05	< 1e-05
AUAAAAGCGCCAGAACUACAGAAAUGUAGUUCACGUGGAGGGGGUUUAUCGAAUUUUCGGCGGAUGCCUCCAAA [G32C A36U A42G]	< 1e-05				
AUAAAAGCGCCAGAACUACAGAAAUGUAGUUCACGUGGAAGAGGUUUAUCGAAUUUUCGGCGGAUGCCUCGAAA [G32C A36U G40A C71G]	< 1e-05				
AUAAAAGCGCCAGAACUACAGAAAUGUAGUUCACGAGGGGGAGGUUUACCUUAUUUUCGGCGGAUGCCUCUAAA [G32C A39G U49C G51U A52U C71U]	< 1e-05	< 1e-05	< 1e-05	< 1e-05	
AUAAAAGCGCCAGAACUACAGAAAUGUAGUUCACGAGGAGGAGGUUUCUCGAAUUUUCGGCGGAUGCCUCCAAA [G32C A48C]	< 1e-05	< 1e-05	< 1e-05		< 1e-05
AUAAAAGCGCCAGAACUACAGAAAUGUAGUUCACGAGGAGGAGGUUUAUCGCAUUUUCGGCGGAUGCCUCCAAA [G32C A52C]	< 1e-05	< 1e-05	< 1e-05		< 1e-05
AUAAAAGCGCCAGAACUACAGAAAUGUAGUUCACGAGGAGGAGGUUUAUCGCAUUUUCGGCGAAUGCCUCCAAA [G32C A52C G63A]	< 1e-05				
AUAAAAGCGCCAGAACUACAGAAAUGUAGUUCAGGAGGAGGAGGUUUAUCGAAUUUUCGGCGGAUGCCUCCAAA [G32C C34G]	< 1e-05	< 1e-05	< 1e-05	< 1e-05	
AUAAAAGCGCCAGAACUACAGAAAUGUAGUUCACGAGGAGGAGGUUUAUAGAAUUUUCGGCGGAUGCCUCCAAA [G32C C50A]	< 1e-05			< 1e-05	< 1e-05
AUAAAAGCGCCAGAACUACAGAAAUGUAGUUCACGAGGAGGAGGUUUAUCGAAUUUUCGGUGGAUGCCUCCAAA [G32C C61U]	< 1e-05	< 1e-05	< 1e-05	< 1e-05	< 1e-05
AUAAAAGCGCCAGAACUACAGAAAUGUAGUUCACGAGCAGGAGGUUUAUCGAAUUUUCGGCGGAUGCCUCCAAA [G32C G38C]	< 1e-05	< 1e-05			< 1e-05
AUAAAAGCGCCAGAACUACAGAAAUGUAGUUCACGAGGACGACGUUUAUCGAAUUUUCGGCGGCUGCCUCCAAA [G32C G40C G43C A64C]	< 1e-05				
AUAAAAGCGCCAGAACUACAGAAAUGUAGUUCACGAGGAGGAAGUUUAUCGAAUUUUCGGCGGAUGCCUCCAAA [G32C G43A]	< 1e-05	< 1e-05		< 1e-05	< 1e-05
AUAAAAGCGCCAGAACUACAGAAAUGUAGUUCACGAGGAGGAGCUUUAUCGAAUCUUCGGCGGAUGCAUUCAAA [G32C G44C U55C C68A C70U]	< 1e-05				
AUAAAAGCGCCAGAACUACAGAAAUGUAGUUCACGAGGAGGAGGUUUAUCGAAUUUUCAGCGGUUGCCUCCAAA [G32C G59A A64U]	< 1e-05			< 1e-05	
AUAAAAGCGCCAGAACUACAGAAAUGUAGUUCACGAGGAGGAGGUUUAUCGAAUUUUCGGCCGAUGCCUCCAAA [G32C G62C]	< 1e-05	< 1e-05	< 1e-05	< 1e-05	< 1e-05
AUAAAAGCGCCAGAACUACAGAAAUGUAGUUCACGAGGAGGAGGUUUAUCGAAUUUUCGGCUGAUGCCUCCAAA [G32C G62U]	< 1e-05		< 1e-05	< 1e-05	< 1e-05
AUAAAAGCGCCAGAACUACAGAAAUGUAGUUCACGAGGAGGAGGUUUAUCGAAUUUUCGGCGCAUGCCUCCAAA [G32C G63C]	< 1e-05		< 1e-05		
AUAAAAGCGCCAGAACUACAGAAAUGUAGUUCACGAGGAGGAGGCUUAUCGAAUUUUCGGCGGAUGCCUCCAAA [G32C U45C]	< 1e-05	< 1e-05			
AUAAAAGCGCCAGAACUACAGAAAUGUAGUUCACGAGGAGGAGGCUUAUCGAAUUUUGUGCGGAUGCCUCCAAA [G32C U45C C58G G59U]	< 1e-05				
AUAAAAGCGCCAGAACUACAGAAAUGUAGUUCACGAGGAGGAGGCUUAUCGAAUUUUCGGCGGAUGCCACCAAA [G32C U45C U69A]	< 1e-05				
AUAAAAGCGCCAGAACUACAGAAAUGUAGUUCACGAGGAGGAGGUUUAUCGAAAUGUCGGCGGAUGCCUCCAAA [G32C U54A U56G]	< 1e-05				
AUAAAAGCGCCAGAACUACAGAAAUGUAGUUCACGAGGAGGAGGUUUAUCGAAUUUUCGGCGGAUGCCGCCAAA [G32C U69G]	0.000189 ± 3.1e-05				
AUAAAAGCGCCAGAACUACAGAAAUGUAGUUUCCGAGGAGGAGGGUUAUCGAAUUUUCGGCGGAUGCCUCCAAA [G32U A33C U45G]	< 1e-05		< 1e-05		
AUAAAAGCGCCAGAACUACAGAAAUGUAGUUUACGCGGAGGAGGUUUAUCGAAUUUUCGGCGAAUGCCUCCAAA [G32U A36C G63A]	< 1e-05				< 1e-05
